Results taken from PMC4336329 (PLoS ONE, 2015).
Among all 310,000 compounds or so, about 14,000 (4.5%) showed an effect of 50% or more. Effects have a minus sign here. This is one part of the list.

target: human ether-à-go-go-related gene (hERG) potassium channel (human, UniProt Q12809); assay: primary screen, population patch clamp on CHO cells stably expressing hERG
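Also: peak tail current of the secondary pulse compared with the same well before compound.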

Chain of human ether-à-go-go-related gene (hERG) potassium channel (Q12809 whole entry, looked up): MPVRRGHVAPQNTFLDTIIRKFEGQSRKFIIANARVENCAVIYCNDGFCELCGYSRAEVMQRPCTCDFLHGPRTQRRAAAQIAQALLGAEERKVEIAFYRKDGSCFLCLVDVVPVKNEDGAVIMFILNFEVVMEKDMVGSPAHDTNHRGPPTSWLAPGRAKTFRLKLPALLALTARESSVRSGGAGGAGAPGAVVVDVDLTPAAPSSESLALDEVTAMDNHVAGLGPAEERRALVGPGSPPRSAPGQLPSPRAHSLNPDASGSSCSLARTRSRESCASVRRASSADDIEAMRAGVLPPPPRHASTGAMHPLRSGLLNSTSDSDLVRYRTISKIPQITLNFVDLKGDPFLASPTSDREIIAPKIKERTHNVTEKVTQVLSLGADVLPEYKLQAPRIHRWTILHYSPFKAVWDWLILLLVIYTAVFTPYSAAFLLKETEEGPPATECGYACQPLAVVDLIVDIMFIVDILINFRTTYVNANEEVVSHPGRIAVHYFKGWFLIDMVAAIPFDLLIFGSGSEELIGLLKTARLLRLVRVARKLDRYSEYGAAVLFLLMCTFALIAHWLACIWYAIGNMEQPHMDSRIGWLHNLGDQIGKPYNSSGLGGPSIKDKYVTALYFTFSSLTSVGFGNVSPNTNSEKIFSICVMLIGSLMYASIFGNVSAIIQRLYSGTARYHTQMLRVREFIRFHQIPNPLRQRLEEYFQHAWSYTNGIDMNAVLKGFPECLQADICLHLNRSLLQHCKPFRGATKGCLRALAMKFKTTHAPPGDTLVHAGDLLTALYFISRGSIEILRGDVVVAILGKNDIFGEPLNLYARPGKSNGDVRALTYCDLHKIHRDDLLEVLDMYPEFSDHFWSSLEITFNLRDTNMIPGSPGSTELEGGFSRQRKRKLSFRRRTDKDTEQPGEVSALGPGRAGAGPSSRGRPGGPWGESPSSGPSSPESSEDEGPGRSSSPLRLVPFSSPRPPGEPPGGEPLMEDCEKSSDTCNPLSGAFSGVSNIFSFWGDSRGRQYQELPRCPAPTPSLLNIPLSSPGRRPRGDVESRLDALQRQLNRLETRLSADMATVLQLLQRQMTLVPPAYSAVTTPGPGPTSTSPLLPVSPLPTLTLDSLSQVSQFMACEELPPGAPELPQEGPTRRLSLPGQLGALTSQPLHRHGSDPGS

SMILES | hERG current change (%, negative = inhibition) at 10uM [%]
Cc1ccccc1N1C(=O)CC(=O)NC1=O | 5.21
CCn1c(SCC(=O)Nc2c(C#N)cnn2-c2ccccc2)nnc1-c1cccs1 | -13.6
CC(=O)C1=C(O)C(=O)N(CCC(=O)O)C1c1ccccc1[N+](=O)[O-] (stereo not drawn) | 11.5
CCCCc1c(O)nc2n(c1=O)CCS2 | 11.8
CN1CCn2c1nc(N1CCCCC1)nc2=O | -11.9
O=C1c2ccccc2NC(c2cccc(O)c2)N1NS(=O)(=O)c1ccccc1 (stereo not drawn) | 0.888
CCCCNC(=O)CCCN1C(=O)c2cccnc2Sc2ccccc21 | 9.61
CCOc1ccc(NC(=O)CSc2nccn(-c3ccc4c(c3)OCCO4)c2=O)cc1 | -12.4
[S-]c1nnc(-c2ccc(Br)cc2)n1-c1ccccc1.[Zn+2] | 18.9
CCCCOc1cc(C(=O)OCCN(CC)CC)ccc1N | -60.6
N#C[C@H]1C2OC2c2ccccc2N1C(=O)c1ccccc1 (stereo partly drawn) | -0.165
CCOC(=O)c1cn(CC(=O)Nc2cccc(Cl)c2C)nn1 | 19.8
Cc1onc(-c2ccccc2Cl)c1C(=O)Nc1ccc(S(=O)(=O)N2CCCC2)cc1 | 19.3
COc1cccc(/C=C2\Oc3ccc(O)cc3C2=O)c1O | 14.1
Cc1ccc(CN2CCSc3ccc(C(=O)NCCCN4CCOCC4)cc32)cc1 | -37.8
CCOc1ccc(CN2C(=O)c3ccccc3Sc3ccc(C(=O)NCCCN4CCOCC4)cc32)cc1 | -22.5
Cc1ccc(S(=O)(=O)NC(=O)NCc2ccc(F)cc2)cc1 | 13
CCOc1cc(CNCCO)cc(Br)c1OCc1ccc(Cl)cc1Cl.Cl | 2.86
COC(=O)c1nn(-c2ccc(OC)cc2)c(=O)cc1NN | 26.7
CC1C/C(=N\NC(=O)c2cccnc2)CC(C)(C)C1 (stereo not drawn) | 9.65
COCC(=O)Nc1ccc2c(c1)OCO2 | 18.3
O=C(Nc1ccccc1N1CCOCC1)c1ccc([N+](=O)[O-])o1 | -17.9
CC(Sc1ncnc2sccc12)C(=O)Nc1ccc(C(N)=O)cc1 (stereo not drawn) | 25.8

SMILES | hERG current change (%, negative = inhibition) at 10uM [%]
Cc1ccc(NC(=O)C(OC(=O)c2cc(C)oc2C)c2ccccc2)cc1 (stereo not drawn) | 6.95
CCOc1ccc(NC(=O)CCNS(=O)(=O)c2cccc3nsnc23)cc1 | -4.4
C/C(=N/OC(=O)c1ccccc1Br)c1ccc(C)cc1 | 16.1
COc1ccc2[nH]c(=O)c(CN(Cc3ccc(C)cc3)Cc3nnnn3CC3CCCO3)cc2c1 (stereo not drawn) | -10.2
Cc1nc2sccn2c(=O)c1S(=O)(=O)N1CCN(c2cccc(Cl)c2)CC1 | -0.478
COc1ccc(OCCOCCOc2ccc(C)cc2[N+](=O)[O-])cc1 | -22.4
CCC1CCCCN1C(=O)COc1cccc2c1CCN(C)C2=O (stereo not drawn) | 1.34
CCCCC(=O)Nc1nnc(-c2ccc(OC)cc2)s1 | -2.51
COc1ccc(CCNC(=O)CCCC(=O)n2nc(C)c3ccccc32)cc1OC | -1.14
C=CCN1CCN(C(=O)c2cc3c(s2)CCCC3)CC1 | -19.3
OC(CNCc1cccs1)c1ccccc1 (stereo not drawn) | 7.94
CC(=O)N1CCN(c2nc(CC(C)C)c3c(c2C#N)CCC3)CC1 | -9.82
Cn1c(SCC(=O)N2CCCc3ccccc32)nnc1-c1ccco1 | -1.95
CCOc1ccc(-n2c(SCC(N)=O)nc3c([nH]c4ccccc43)c2=O)cc1 | 1.03
COCCn1c(C)cc(C(=O)CSc2cc(C)c3ccccc3n2)c1C | 4.15
CCCCn1c(N)c(N(CCC(C)C)C(=O)c2sc3nc4n(c(=O)c3c2C)CCC4)c(=O)[nH]c1=O | 15.8
COc1ccc(-c2ccccc2)cc1NC(=O)c1cccs1 | 8.59
Cc1ccc2nc(NCC(=O)O)nc(-c3ccccc3)c2c1 | 4.48
CS(=O)(=O)NCC(c1cccnc1)N1CCN(c2ccccc2F)CC1 (stereo not drawn) | -9.77
CCOC(=O)CSc1cccc2cccnc12 | 2.32
CC/C(=N/Nc1ccccc1)c1cnnc(-c2ccccc2)n1 | 1.98
CC(C)(C)CN1C(N)=NC[C@@H]1Cc1ccc(O)cc1 | 10.1
